The full ranking holds about 81,000 sequences; the median of “one-hybrid fitness for binding NBS DNA” is about -0.1, and the highest 2% start at about 0.36. Some of the results follow.
B1: Caulobacter ParB omega fusion; a variant is named by its letters at X, in order, B8GW30 (parent)
chain: MESVVVGEPGMSEGRRGLGRGLSALLGEVDAAPAQAPGEQLGGSREAPIEILQRNPDQPRRTFREEDLEDLSNSIREKGVLQPILVRPSPDTAGEYQIVAGERAWRAAQRAGLKTVPIMVRELDDLAVLEIGIIENVQRADLNVLEEALSYKVLMEKFERTQENIAQTIGKSXSHVANXMRLLXLPDEVQSYLVSGELTAXHARAIAAAADPVALAKQIIEGGLSVRETEALARKAPNLSAGKSKGGRPPRVKDTDTQALESDLSSVLGLDVSIDHRGSTGTLTITYATLEQLDDLCNRLTRGI

Variants of: B1
Experiment: one-hybrid fitness for binding NBS DNA (the Noc-binding site; scaled: cognate 1, non-cognate 0); higher = stronger binding
Details: with NBS DNA site
Method in brief: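 The reporter was HIS3, with the binding site 19 bp from the promoter, in E. coli USO used for bacterial one-hybrid selection of Caulobacter ParB libraries with four specificity codons randomised. Growth was on M9 lacking histidine, with 0.1 mM IPTG and 5 mM 3-AT, for 48 hours at 37°C. Illumina sequencing covered plasmids before and after selection; three replicate libraries were pooled and variants with under 10 reads dropped. A fitness score is the log change in variant-to-wild-type read ratio, rescaled to the cognate and non-cognate references.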

one-hybrid fitness for binding NBS DNA, 0.346:
QTNV

one-hybrid fitness for binding NBS DNA, 0.215:
RSWT

one-hybrid fitness for binding NBS DNA, 0.356:
QWKR

one-hybrid fitness for binding NBS DNA, 0.338:
RRIH

one-hybrid fitness for binding NBS DNA, ≤ 0.2:
HVQT
GYRK
QSMD
FRRT
AYSW
LNRL
PVGL
RRQE
PQTH
DDRR
ATIE
STSA
ARGP
YAKS
WSEG
MPHL
EKYC
NHHG
SDTM
YQCS
SMNI
FTVL
NSAI
PILN
HMDT
LPPM
GNHS
DWMC
AFMV
ATLS
GKGS
THAY
KYDS
CGLS
ILRM
NSKA
RCKI
DKKS
WSPG
KWGG
TRHW
QNYP
TASG
HFYG
LRRL
LCDP
ANWL
WRLW
NFAR
PEQN
VDAA
LAKL
AASG
RNHD
VNIL
IFRA
PMHC
PITA
GYKG
SNNG
RTPA
HSNI
VDHS
PCEY
LRWW
TFSR
HTPG
PCIR
IGHT
VLSE
EKSE
ELNL
LLDK
TMLA
YNPE
CIPR
AEQS
CTDH
TDKT
RPEG
KTYA
QHEC
LSIY
RFEV
ISTS
GLIG
VSAS
TAFI
PMMS
PQPL
EIQL
HRVK
KATQ
YEYS
VESS
GDCG
DLHR
YVDR
LYCY
DQQT
EVWT
DYKL
AFNW
AKCG
REPH
YNQS
PPIL
RKWC
GNLI
THSI
RWTM
ADAC
GPCC
SNTK
EMYS
SFPL
QKFG
RGRM
HNFW
DLWG
YKTT
EDGL
VEDR
LQSI
ADNV
FNNS
SYLW
NIRA
YKVS
STHP
LHAS
VRNQ
MTRM
ENNS
AGPC
QYAC
MNDD
PPRN
NDTY
PYKV
QHGI
VGGG
TFCY
DKRI
RCGG
DRDY
HYMV
PMAF
QAWA
EQRT
ANMW
ISFR
KDVG
MPPS
LMRW
SLLH
NWNQ
QHNP
SNIL
FDQS
TIVG
ETKG
PPRT
NSEV
RSWL
QIHC
RHYY
IYLR
RLNI
KTAF
TEPL
CTVD
DSNP
PATQ
VKDI
VLYA
PTAA
PRSY
SMSG
TYDS
ETHR
PHNT
FFGV
NIYG
VPHI
IKPF
AKLR
TIIA
RWNA
CTPF
GKIS
MFVC
NLSH
TRAW
RLCF
HCYS
TVCG
IIYS
PTFS
AFKS
RAIC
WGSC
YLCT
NWRK
MFTH
GLGV
HSTQ
LIKP
EDAR
WLAW
GVNW
AETG
PHSS
PARE
ECYR
TMFR
RYPK
TVYS
TILT
IQPH
KYCL
WVGN
HTVD
QWSY
KWHS
RTGG
ADKE
HWYS
AFVG
PCAV
HRCD
EPYC
FRRQ
QKHQ
QQYV
GTCQ
RTRF
EVRL
GGKC
ERPI
YCQS
FSRT
RLLV
GCYR
EPQP
RGMK
KQEL
DWVS
AMAS
TSYG
NTQV
VDER
GTEF
VCIC
MVHR
HLEP
SCPV
PSTN
TLSN
QQFL
LDNG
DMVL
KELI
CSSE
HYVC
GMKG
NTRW
WIKR
VRND
FCPS
PKNG
RHCI
YPTT
IKES
EPKL
IIPN
PMCM
WTMK
DEIR
KMGV
GGSE
VNMS
TKTN
VRMY
RLNP
TCHY
RVPV
LKEE
SGEY
GSMC
ITFG
QFSC

one-hybrid fitness for binding NBS DNA, 0.558:
QSKA

one-hybrid fitness for binding NBS DNA, 0.427:
KKKT

one-hybrid fitness for binding NBS DNA, 0.463:
RVGS

one-hybrid fitness for binding NBS DNA, 0.233:
QTAM

one-hybrid fitness for binding NBS DNA, 0.883:
QTKT

one-hybrid fitness for binding NBS DNA, 0.289:
RMMS

one-hybrid fitness for binding NBS DNA, 0.207:
IRCT

one-hybrid fitness for binding NBS DNA, 0.26:
RKMA

one-hybrid fitness for binding NBS DNA, 0.286:
IRQR

one-hybrid fitness for binding NBS DNA, 0.528:
RLNT

From a collection of fitness landscapes (doi:10.1016/j.celrep.2020.107928)
